According to PubChem BioAssay AID485298 (National Center for Advancing Translational Sciences (NCATS), 2010):
About 740 (0.23%) of roughly 320,000 compounds were called active. Not shown: some 2% with an inconclusive outcome. Calls follow the shape of the dose curve; as a rule, active = well fitted activation curve with a large enough effect; inconclusive = small, poorly fitted or top-dose-only effect; inactive = no such curve, though single readings can be large or run the other way. This is a selection; strong and weak results do not stand in their true shares. Entries without a call were filed so in the source.

Test: qHTS Assay for Small Molecule Inhibitors of Mitochondrial Division or Activators of Mitochondrial Fusion; also: nearly all actives have a fitted effect of over 45% in size; as to growth rescue (activation): % of control where 0% means no effect
Settings: S. cerevisiae fusion-defective mutant growth rescue, CellTiterGlo 48 h; growth rescue (activation): at 46.1 µM (top of the series)
Source text: NIH Chemical Genomics Center [NCGC] NIH Molecular Libraries Probe Production centers Network [MLPCN] MLPCN Grant: MH081279-01 Assay Submitter (PI): Jodi M. Nunnari NCGC Assay Overview: The budding yeast S. cerevisiae is a powerful system to study mitochondrial fusion. Unlike other organisms, yeast cells without functional mitochondrial DNA (mtDNA) can be propagated and studied as long as they maintain a mitochondrial compartment and are provided with a fermentable carbon source. When mitochondrial fusion is blocked in yeast, mitochondrial tubules rapidly fragment and division continues unopposed. Under conditions where fusion is compromised in mammalian cells, nearly identical changes in mitochondrial structure have been observed. Thus, these findings indicate that steady state mitochondrial structure in cells is a characteristic and specific indicator of fusion activity. Mounting evidence has pointed to a connection between mitochondrial dynamics and apoptosis in mammalian cells. These studies indicate that in mammalian cells mitochondrial dynamics are more integrated into cellular processes than in yeast cells and have evolved not only to distribute the organelle but also to aid in the regulation of cellular homeostasis. Mitochondrial fusion proteins attenuate apoptosis by inhibiting the release of cytochrome c from mitochondria, in part by controlling cristae structures. Thus, small molecules that inhibit mitochondrial […] may promote apoptosis and potentially act as novel chemotherapeutics and stimulation of apoptosis has become an attractive target of anti-cancer therapies. To identify inhibitors of mitochondrial division, we exploit the growth phenotypes of mitochondrial fusion-defective mutants. The temperature sensitive fusion alleles, such as fzo1-1 and mgm1-5, cause mitochondrial membranes to fragment in cells under non-permissive conditions and cells lose mtDNA, and are unable to grow in the presence of non-fermentable carbon source glycerol. Inhibiting mitochondrial division rescues growth. We have developed and optimized a luminescence cell viability assay in 1536 well format for the identification of inhibitors in the yeast mitochondrial fusion-defective assay.
The yeast glycerol stocks where kindly supplied by the laboratory of Dr. Jodi Nunnari, University of California, Davis. All yeast glycerol stock solutions were stored in single use aliquots at -80C. The CellTiterGlo luminescence reagent, containing luciferase and luciferin, were purchased from Promega, and the reagents were stored according to manufacturer's instructions. The Buffer components for the YPEG yeast growth medium were purchased from Sigma-Aldrich (St. Louis, MO). YPEG growth medium: 1% (w/v) yeast extract, 2% (w/v) Bacto-peptone, 3% Ethanol, 3% glycerol, 0.4mM Tryptophan, 0.36mM Adenine. qHTS Assay Protocol: 1.#Dispense 2.5 ul yeast growth medium per 1536 well plate. 2.#Transfer 23 nl per well of compound to plate. 3.#Dispense 2.5 ul yeast solution at appropriate seeding density per well. 4.#Incubate for 48 hours at 37C. 5.#Dispense 5 ul of CellTiterGlow solution per well. 6.#Incubate at ambient for 10 minutes. 7.#Read using bio-luminescence protocol on Viewlux.
Potency is read from the fitted curve at half-maximal effect.

| SMILES | growth rescue (activation) | Potency |
| --- | --- | --- |
| COc1cccc(CNC(=O)CN2C(=O)CSc3ccc(S(=O)(=O)N4CCOCC4)cc32)c1 | 14.2% |  |
| Cc1cc(=O)n2[nH]c(-c3sccc3-n3c(C)ccc3C)cc2n1 | 7.07% |  |
| C=CCNC(=O)N1CCC(n2nccc2NC(=O)CCCc2ccccc2)CC1 | 17.2% |  |
| Cc1ccc(C(=O)Oc2cccc(NC(=O)c3ccccc3)c2)cc1C |  | active: 10 µM |
| Cn1c(CNC(=O)C(Cc2ccccc2)NC(=O)c2ccccc2)cc(=O)n(C)c1=O (configuration not stated) | 53.1% |  |
| C=CCOc1ccc(/C=C2/C(=N)N3N=C(CC(=O)N4CCCC4)SC3=NC2=O)cc1OC | 4.51% |  |
| O=C(CCc1ccc(O)cc1)c1c(O)cc(O)cc1O | inactive: 7.16% |  |
| COc1ccc(NC(=S)NC(=O)c2ccccc2Cl)cc1 | 26.6% |  |
| COc1ccc(NC(=O)C2CCCN(c3cnccn3)C2)c(OC)c1 (configuration not stated) | 17.5% |  |
| C=C1C(=O)C=C[C@]2(C)C[C@@H]3OC(=O)[C@](C)(O)[C@H]3C[C@@H]12 | inactive: -43.6% |  |
| CC1(C)CC(O)CC(C)(C)N1CC(O)COCc1ccccc1 (configuration not stated) | 9.76% |  |
| COc1ccc(C(=O)OCC(=O)Nc2cccc(C(C)=O)c2)cc1OC | 25.2% |  |
| COc1cc(Nc2ccccn2)cc(C(=O)Nc2cccc(C(F)(F)F)c2)c1 | inactive: -133% |  |
| FC(F)Oc1ccc(NC(=S)NC2CCCCCCC2)cc1 | inactive: -47.8% |  |
| COC(=O)CN(C(=O)CSc1nnc(-c2cccc(OC)c2)o1)c1ccc(OC)cc1 | inactive: -30.6% |  |
| Cc1nn(CC(=O)N2CCN(c3cccc(C(F)(F)F)c3)CC2)c(=O)c2cccn12 | 15.4% |  |
| O=C(Nc1cccc(-c2csc(Nc3ccc(Cl)cc3)n2)c1)c1cccc(C(F)(F)F)c1 | inactive: -127% |  |
| CC(=O)N1c2ccc(S(=O)(=O)N3CCCC3)cc2CC1C(=O)Nc1cc(C)cc(C)c1 (configuration not stated) | 28.5% |  |
| COc1ccc(/C=C2/C(=N)N3N=C(CC(=O)N4CCCC4)SC3=NC2=O)cc1 | 23.5% |  |
| Cc1ccc(-n2nc3c(=O)n(C(C)C(=O)NC4CC4)nc(C)c3c2C)cc1 (configuration not stated) | -3.29% |  |
| Cc1nn(C)c(NC(=O)c2ccc(Cl)cc2Cl)c1Br | 35.7% |  |
| COCc1cc(C)nc(OCC(=O)N/N=C/c2ccccc2)c1C#N | 12.7% |  |
| COc1ccc(NS(=O)(=O)c2cn(C)cn2)cc1Cl | 19.7% |  |

| SMILES | growth rescue (activation) | Potency |
| --- | --- | --- |
| CCC(C)NC(=O)CN1C(=O)CSc2ccc(S(=O)(=O)N3CCCC3)cc21 (configuration not stated) | 10.2% |  |
| Cc1ccc(Sc2ccc(NC(=O)CCl)cc2)cc1C |  | active: 14.1 µM |
| COc1ccc(NC(=O)c2nc[nH]c2C(=O)N[C@@H](C)c2ccccc2)cc1 | inactive: 29.2% |  |
| CSc1ccc(-c2nc(CSCC(=O)NCCCN3CCCC3=O)c(C)o2)cc1 | 26% |  |
| CCC(C)(C)NC(=O)Cc1ccc(C)cc1 | 42.4% |  |
| COc1cccc(C(=O)Nc2cc3c(cc2N2CCOCC2)n(C)c(=O)n3C)c1 | 10.9% |  |
| CC(=O)c1ccc(C(=O)Nc2nnc(-c3ccc(Cl)cc3)o2)cc1 | -8.79% |  |
| O=C(NCCc1c[nH]c2ccccc12)c1cncc(Br)c1 | 40.3% |  |
| Nc1nc(Cl)nc2c1ncn2[C@@H]1O[C@H](COP(=O)(O)OP(=O)(O)OP(=O)(O)O)[C@@H](O)[C@H]1O | inactive: -48.8% |  |
| CC(=O)c1cccc(OCC(O)CNCC2COc3ccccc3O2)c1 (configuration not stated) | 14.9% |  |
| Cc1cc(OCC(=O)c2ccc(Br)cc2)ccc1N1C(=O)CCC1=O | 33.2% |  |
| O=C(Cc1ccccc1)Nc1ccc(S(=O)(=O)N2CCCC2)cc1 | 31.9% |  |
| CC(C)(C)N(Cc1ccccc1)C(=O)CSc1ncn[nH]1 |  | active: 31.6 µM |
| COc1ccc(CC(=O)Nc2ccccc2C(C)=O)cc1S(=O)(=O)N1CCOCC1 | inactive: 12.3% |  |
| C#CCOCCOCCOCCNc1nc(N2CCN(C(=O)[C@H](CCC(=O)O)n3cc(C(N)Cc4ccc(O)cc4)nn3)CC2)nc(N2CCN(C(=O)[C@H](CCCCN)n3cc(C(N)[C@H](C)CC)nn3)CC2)n1 (some centres not stated) | inactive: -65.5% |  |
| Fc1cccc(/C=N/Nc2ccc(Cl)nn2)c1 | 4.53% |  |
| CC1CCc2c(C(=O)NCC3CCCO3)csc2C1 (configuration not stated) | 51.7% |  |
| C/C=N/NC(=O)CCCC(=O)N/N=C/C | 21.6% |  |
| COc1cccc(C(=O)NCC(c2cccs2)N2CCc3ccccc32)c1 (configuration not stated) |  | active: 15.8 µM |
| CC(=O)c1ccc(NC(=O)c2noc3c2CCC3)cc1 | 13.4% |  |
| Cc1[nH]n(C(N)=S)c(=O)c1N=Nc1ccc([N+](=O)[O-])cc1Cl | inactive: -76.5% |  |
| CCOC(=O)CC1(NC(=O)C2CCC(=O)N(CCc3ccc(OC)cc3)C2)CCCCC1 (configuration not stated) | inactive: 18.5% |  |
| COC(=O)c1cc(S(=O)(=O)NCCN2CCN(c3ccccc3F)CC2)c[nH]1 | 29.9% |  |

| SMILES | growth rescue (activation) | Potency |
| --- | --- | --- |
| Cc1oc(-c2ccccc2F)nc1CS(=O)CC(=O)NCCN1CCCCC1C (configuration not stated) | 44.9% |  |
| CC(C)CN(c1ccccc1)S(=O)(=O)c1nnc(NC(=O)c2ccco2)s1 | 22.8% |  |
| O=C(CSc1nc2ccccc2o1)Nc1nc(-c2ccccc2)cs1 |  | active: 15.8 µM |
| Cc1c(C(=O)N2CCOCC2)c(S(=O)(=O)Nc2cccc(F)c2)c(C)n1C | 17.2% |  |
| S=c1[nH]nc(-c2cc3ccccc3o2)n1Cc1ccccc1 |  | active: 14.1 µM |
| CC(=O)NNC(=O)CN1C(=O)/C(=C/c2ccccc2)SC1=S | 8.76% |  |
| COc1ccc(/C=C/C(=O)c2ccc([N+](=O)[O-])o2)cc1OC | inactive: -31% |  |
| COc1ccc(C2=CC(=O)C[C@H](c3ccc(OC)cc3)C2)cc1 | inactive: 23.8% |  |
| Cc1ccc(-c2c(C(=O)NCc3ccccc3)oc(=O)c3ccccc23)cc1 | inactive: 14% |  |
| O=C(CCCCCN1CCN(c2ccccc2-c2ccccc2)CC1)NC1CCCc2ccccc21 (configuration not stated) | inactive: -51.3% |  |
| CCOC(=O)C(C)Oc1cccc2c(=O)n(CC(=O)NCc3ccc4c(c3)OCO4)ccc12 (configuration not stated) | 22.7% |  |
| Cc1ccccc1-n1nc2c(c1NC(=O)c1cccs1)CS(=O)(=O)C2 | 15.7% |  |
| CC(=O)C1=C(O)C(=O)N(Cc2ccco2)C1c1ccccc1F (configuration not stated) | 17.5% |  |
| CC(C)OCCCn1c(=O)c2ccccc2n2c(CCC(=O)NC3CCN(Cc4ccccc4)CC3)nnc12 | -3.01% |  |
| COc1ccc(/C=N/Nc2ccc([N+](=O)[O-])cc2)cc1O | inactive: -36.3% |  |
| COc1cccc(CNC(=O)CN2C(=O)COc3ccc(S(=O)(=O)N4CCCCC4)cc32)c1 | 39.6% |  |
| NC(=O)CN1C(=O)C(=O)N(Cc2cccc(Cl)c2)C1=O | 26.4% |  |
| CCOc1ccc(CCNC(=O)CN2C(=O)c3cccnc3Oc3ccc(Cl)cc32)cc1 | 15% |  |
| CN(C)C(=O)c1cnc(Sc2ncc(C(F)(F)F)cc2Cl)n1C | 48.2% |  |
| CCc1cc(Cn2nc(-c3ccccc3)cc2C(=O)NCc2cccs2)on1 |  | active: 12.6 µM |
| Oc1cc(O)cc(/C=C/c2ccc(O)c(O)c2)c1 | inactive: -0.705% |  |
